According to the supplement of paper PMC6531468:
The list shows a part of the results. Values come from read counts of a selection and are noisy. Each score is taken over the longer molecules that contain the sequence shown.

system: IMP3 KH1-4; test: 6-mer SELEX enrichment z-score vs GST control; IMP3 is the RNA-binding protein IGF2BP3; higher = more enriched by binding; conditions: construct: KH1-4 (164-579); SELEX round: R4
Experimental: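 SELEX-seq with GST-tagged IMP3 KH1-4 (Pro164-Lys579) and an N40 RNA pool, round 4. 6-mer z-score of sequence-tag enrichment normalised to the corresponding GST SELEX round; RNA k-mers written as DNA (T for U).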

Sequence of IMP3 KH1-4 (chain, as listed by the source): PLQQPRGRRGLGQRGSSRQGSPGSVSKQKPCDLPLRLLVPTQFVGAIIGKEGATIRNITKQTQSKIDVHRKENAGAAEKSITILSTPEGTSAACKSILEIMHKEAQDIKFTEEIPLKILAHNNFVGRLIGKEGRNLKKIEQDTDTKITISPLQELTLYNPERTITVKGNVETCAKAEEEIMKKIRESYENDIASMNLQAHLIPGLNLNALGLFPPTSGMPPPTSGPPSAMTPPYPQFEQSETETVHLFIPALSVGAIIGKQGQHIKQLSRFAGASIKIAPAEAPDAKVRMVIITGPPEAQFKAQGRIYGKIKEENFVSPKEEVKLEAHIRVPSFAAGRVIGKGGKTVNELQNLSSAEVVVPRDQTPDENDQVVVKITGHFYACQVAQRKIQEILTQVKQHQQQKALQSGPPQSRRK

Sequence | 6-mer SELEX enrichment z-score
TATCAG | 0.619
CGATCG | -1.25
GTCGGA | 0.948
CCGGCA | 1.18
ACTTCT | 0.515
GTTGAC | -0.881
GAATCC | -0.785
TCTGGA | -0.161
GGAGTC | 0.645
TGGTGA | 0.118
GGGTGC | -0.066
CGCTCT | -0.136
ATATGG | 1.23
ATTCAG | 0.872
GAGATC | -0.235
TACGCC | 0.093
GCATTT | 0.149
TTTGGA | -0.106
GGATTT | 0.611
CACCGC | 0.442

Sequence | 6-mer SELEX enrichment z-score
ACACAG | 1.55
ATATGC | 1.21
AAGGAA | 0.68
AAAATA | 0.953
TGCGAT | -0.095
CAGGCA | 2.04
CATCAG | 0.482
GTCCCA | -0.87
TCCTGC | -0.464
TCCCGG | -0.642
TGCTCC | 0.15
TAGCAG | 0.673
ACTGTT | 0.356
TAGAGT | 0.036
GTACTC | -1.15
CGGTCA | 0.412
CTTGCA | 0.065
AGCATT | 0.003
TCGATA | -0.187
CGCTTA | 0.168
